# Several values for one entry are separate records, joined by “and”; a condition that tells them apart may be missing. Equal entries are not always repeated. Inconclusive means that the source gave no clear call. Such entries were picked first, then a sample of the others. Potencies beside an inconclusive call are fits to weak or partial responses and may not hold up. Some structures have more than one record in an assay (separate samples or runs), and their calls can disagree. Activity calls are given as the source filed them. Calls come from the whole dose curve; as a rule, active = well fitted cell-killing curve with a large enough effect in the repeat runs; inconclusive = weak or mixed curves, or effect the other way; inactive = flat fitted curve, though single readings scatter.
# Assay: qHTS RealTime-Glo MT Cell Viability Assay in HEK293 cells - 40 hour (AID 1224874); note: nearly all actives have a fitted effect of over 50% in size
# Conditions: RealTime-Glo luminescence; max response: hits give low values
# Source text: U.S. Tox21 Program National Center for Advancing Translational Sciences [NCATS] NIH Chemical Genomics Center [NCGC] U.S. Environmental Protection Agency [EPA] National Institutes of Environmental Health Sciences [NIEHS] National Toxicology Program [NTP] U.S. Food and Drug Administration [FDA] Tox21 Assay Overview: Measure of cell viability is critical in the cell-base assay. Analysis of cell viability is necessary for the characterization of cell responses to cytotoxic drugs and environmental stress. A RealTime-Glo MT Cell Viability Assay to monitor cell viability in real time of continues cell culture during 40 hours of compound treatment was used to screen Tox21 10K library compounds in Hek293 cells. The RealTime-Glo MT Cell Viability Assay is a nonlytic, homogeneous, bioluminescent method to measure cell viability in real time using a simple, plate-based method. The assay involves adding NanoLuc luciferase and a cell-permeant prosubstrate to cells in culture. Viable cells reduce the proprietary prosubstrate to generate a substrate for NanoLuc luciferase. This substrate diffuses from cells into the surrounding culture medium, where it is rapidly used by the NanoLuc Enzyme to produce a luminescent signal. The signal correlates with the number of viable cells, making the assay well suited for cytotoxicity studies.
# Tox21 Assay Protocol Summary: The mixture of Hek293 cell suspension and reagents were dispensed at 600cells/6 ul/well in 1536-well tissue culture treated black solid bottom plates using a Multidrop dispenser. After the assay plates were incubated at a 37 C/5% CO2 incubator for 5 hours, 23 nL of compounds dissolved in DMSO, positive and negative controls was transferred to the assay plate by a pintool work station. The plates were incubated at 37 C for 40 hours. The luminescence intensity were measured at 0h, 8h, 16h, 24h, 32h and 40h time points using ViewLux plate reader during compound treatment.
# % is set by controls: 0 for no effect and ±100 for the full control effect; potency is the fitted concentration of half-maximal effect; tags give direction and shape of the fitted curve.
SMILES,Potency,max response
CCC[N+]1(C)CCCCC1,"inconclusive: 54.9 µM [cytotoxic, single point]",
N#Cc1cc(I)c(O)c(I)c1,"inconclusive: 54.9 µM [cytotoxic, single point]",
CSc1nc(NC(C)C)nc(NC(C)C)n1,"inconclusive: 49 µM [cytotoxic, partial curve]",
COP(=O)(OC)OC,"inconclusive: 6.22 µM [cytotoxic, full curve]",
N#CCCl,"inconclusive: 57.3 µM [cytotoxic, single point]",
O=C1NCN(c2ccccc2)C12CCN(CCCOc1ccc(F)cc1)CC2,"inconclusive: 23.9 µM [cytotoxic, partial curve]",
CC(Oc1ccc(Oc2ncc(C(F)(F)F)cc2Cl)cc1)C(=O)O (stereo not given),"inconclusive: 24.5 µM [cytotoxic, partial curve]",
COC(=O)Nc1nc2ccccc2[nH]1,"inconclusive: 3.47 µM [cytotoxic, full curve] and inconclusive: 4.9 µM [cytotoxic, full curve]",
O=C(CCl)C(Cl)Cl,active: 17.5 µM,
Cc1ccc(N)cc1N,"inconclusive: 49 µM [rising, partial curve, poor fit]",
COP(=S)(OC)Oc1ccc(Sc2ccc(OP(=S)(OC)OC)cc2)cc1,"inconclusive: 38.9 µM [cytotoxic, partial curve, poor fit]",
CCCCCCCCCCCC[N+](C)(C)CCOc1ccccc1,active: 6.92 µM and active: 9.52 µM,
CCOC(=O)C1(c2ccccc2)CCN(CCC(C#N)(c2ccccc2)c2ccccc2)CC1,"inconclusive: 4.77 µM [cytotoxic, full curve]",
CC(COc1ccc(Oc2ccccc2)cc1)Oc1ccccn1 (stereo not given),"inconclusive: 21.9 µM [cytotoxic, full curve]",
O=S(=O)(c1ccc(Cl)cc1)c1cc(Cl)c(Cl)cc1Cl,"inconclusive: 12.3 µM [cytotoxic, partial curve, poor fit] and inconclusive: 19.5 µM [cytotoxic, partial curve, poor fit]",
CCCCC(C#N)(Cn1cncn1)c1ccc(Cl)cc1 (stereo not given),"inconclusive: 38.8 µM [cytotoxic, partial curve] and inconclusive: 43.6 µM [cytotoxic, partial curve]",
CCCCOC(=O)c1ccccc1N,,inactive: 0.429%
CCCCN(CCCC)C(=S)S,,inactive: -4.16%
Cc1ccccc1C(=O)Nc1cccc(OC(C)C)c1,"inconclusive: 24.5 µM [cytotoxic, partial curve]",
CC(C)(C)N(NC(=O)c1ccc(Cl)cc1)C(=O)c1ccccc1,"inconclusive: 19.4 µM [cytotoxic, partial curve]",

SMILES,Potency,max response
C=CCOC(Cn1ccnc1)c1ccc(Cl)cc1Cl (stereo not given),"inconclusive: 21.3 µM [cytotoxic, partial curve]",
Cc1c(Cl)c(=O)oc2cc(OP(=O)(OCCCl)OCCCl)ccc12,"inconclusive: 21.3 µM [cytotoxic, partial curve]",
Clc1ccc(CO/N=C(\Cn2ccnc2)c2ccc(Cl)cc2Cl)c(Cl)c1,active: 21.3 µM,
COP(=S)(OC)SCn1nnc2ccccc2c1=O,"inconclusive: 49 µM [cytotoxic, partial curve]",
C/C(=C\c1ccccc1)[N+](=O)[O-],active: 11 µM,
CC(c1ccc(O)cc1)c1ccc(O)cc1,"inconclusive: 51.5 µM [cytotoxic, single point] and inconclusive: 24.5 µM [cytotoxic, partial curve]",
O=C1CN=C(c2ccccc2)c2cc(Cl)ccc2N1CC1CC1,"inconclusive: 45.8 µM [cytotoxic, partial curve]",
O=[N+]([O-])O.O=[N+]([O-])O.[Cd],active: 24.5 µM,
O=S(=O)(O)C(F)(F)C(F)(F)C(F)(F)C(F)(F)C(F)(F)C(F)(F)C(F)(F)C(F)(F)F,"inconclusive: 21.9 µM [cytotoxic, full curve]",
N#CC(c1ccccc1)c1ccccc1,"inconclusive: 17.4 µM [cytotoxic, full curve]",
CCn1cc[n+](C)c1,active: 1.56 µM,
ClC1=C(Cl)[C@]2(Cl)[C@H]3[C@H]([C@H]4C=C[C@H]3C4)[C@@]1(Cl)C2(Cl)Cl,,inactive: -13.1%
Fc1ccc(Oc2ccnc3cc(Cl)cc(Cl)c23)cc1,active: 9.77 µM,
CON(C)C(=O)Nc1ccc(Br)c(Cl)c1,"inconclusive: 38.9 µM [cytotoxic, partial curve]",
c1ccc2c(c1)CCNC2,"inconclusive: 63.2 µM [cytotoxic, single point]",
Cc1cccc(N=Nc2ccc(N(C)C)cc2)c1,"inconclusive: 62.7 µM [cytotoxic, single point] and inconclusive: 43.6 µM [cytotoxic, partial curve]",
C=C(C#N)CCC#N,,inactive: 5.63%
CC1COC2(c3ccccc3Cl)c3cc(Cl)ccc3NC(=O)CN12 (stereo not given),"inconclusive: 26.8 µM [cytotoxic, single point]",
O=NN1CCCCCCC1,,inactive: 6.51% and inactive: -7.12%
Cc1cc(C(F)(C(F)(F)F)C(F)(F)F)ccc1NC(=O)c1cccc(I)c1C(=O)NC(C)(C)CS(C)(=O)=O,"inconclusive: 15.6 µM [cytotoxic, partial curve]",

# Reference: PubChem BioAssay (Tox21)
